# Data taken from PubChem BioAssay AID938 (National Center for Advancing Translational Sciences (NCATS), 2007).
# The whole screen tested about 73,000 compounds, of which about 1,800 (2.5%) were called active. This list was built around the results that the source calls inconclusive (neither active nor inactive); the mix of calls is not that of the screen. Calls come from the whole dose curve; as a rule, active = well fitted activation curve with a large enough effect; inconclusive = small, poorly fitted or top-dose-only effect; inactive = no such curve, though single readings can be large or run the other way. No potency is given beside an inconclusive call; the fits are too rough.
# Assay: qHTS Assay for Agonists of the Thyroid Stimulating Hormone Receptor: Activators of Intracellular cAMP Concentrations in Parental HEK 293; note: nearly all actives have a fitted effect of over 55% in size; for activation: % of control where 0% means no effect
# Settings: parental HEK293 CNG cAMP sensor, membrane potential fluorescence; activation: at 57.1 µM (top of the series) unless noted
# Procedure, shortened: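 Counterscreen for endogenous-receptor signalling: CNG-channel HEK 293 cells report cAMP rise by membrane depolarization. After 60 min dye equilibration with 100 uM RO 20-1724, compounds incubated 30 min before bottom-read fluorescence at 590 nm.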
# Potency is the fitted concentration of half-maximal effect; tags give direction and shape of the fitted curve.
Compound,activation,Potency
Cc1csc(B(O)O)c1,inactive: 15.8%,
O=S(=O)(NCCSc1nnc(-c2ccco2)n1-c1ccccc1)c1ccccc1,,"inconclusive [activator, single point]"
O=C(CSc1nn(-c2ccc(Cl)cc2)c(=S)s1)N1CCN(C(=O)c2ccco2)CC1,,"inconclusive [activator, single point]"
O=c1c2ccccc2nc(SCc2cn3ccsc3n2)n1-c1ccccc1,,"inconclusive [activator, single point]"
OCC(CO)(CBr)CBr,inactive: -27.6%,
CCn1c(=O)c(C(=O)NCc2cccnc2)c(O)c2ccccc21,inactive: 23.7%,
CCCn1c(SCc2ccccn2)nc2c1c(=O)n(C)c(=O)n2C,inactive: 6.36%,
Cc1ccc(CNC(=O)[C@H]2C[C@@H]2[C@H](NP(=O)(c2ccccc2)c2ccccc2)c2ccccc2)c(F)c1F,inactive: 18.4%,
Cc1ccc(C)c(OCC(O)CN2C(C)CCCC2C)c1 (stereo not drawn),,"inconclusive [activator, partial curve]"
Cc1ncc(C23CC4CC(CC(C4)C2)C3)[nH]1,,"inconclusive [activator, partial curve]"
Cn1c(Cn2c(=O)sc3ccccc32)nnc1SCC(=O)NC1CCCCC1,,"inconclusive [activator, single point]"
CCOc1ccc(C(=O)Nc2c3c(nn2-c2cccc(Cl)c2)CS(=O)C3)cc1 (stereo not drawn),,"inconclusive [activator, single point]"
Cc1cccc(OCC(O)Cn2c(=N)n(CCN3CCCCC3)c3ccccc32)c1 (stereo not drawn),,"inconclusive [activator, partial curve]"
N#Cc1nc(-c2cccs2)oc1N1CCN(c2ccccc2)CC1,,active: 20 µM
O=C(CSc1nnc(-c2cccc(S(=O)(=O)N3CCCCC3)c2)o1)NCCC1=CCCCC1,,"inconclusive [activator, partial curve]"
N#Cc1c(NC(=O)CCC(=O)O)ccc2ccccc12,inactive: 12.3% [at 11.4 µM],
CC1Cc2ccccc2N1C(=O)CSc1nnc2n1C(C)(C)Cc1ccccc1-2 (stereo not drawn),,"inconclusive [activator, partial curve]"
C=C1CC[C@H]2C(C)(C)[C@H](O)CC[C@]2(C)[C@@H]1COc1ccc2ccc(=O)oc2c1,,"inconclusive [activator, partial curve]"
CCn1c(C(=O)N2CCC(C(=O)NCCCSC3CCCCC3)CC2)cc2sccc21,,active: 15.8 µM
COC(=O)c1cc(Cl)c(NS(=O)(=O)c2ccccc2)cc1OC,inactive: -15.3%,
O=C(Nc1ccc2nn(-c3ccccc3)nc2c1)c1ccc(Br)o1,,"inconclusive [activator, single point]"
Clc1ccc(-c2nnc(-c3ccccc3Cl)o2)cc1,,"inconclusive [activator, partial curve]"
CCOCCCNC(=O)C(c1ccccc1)N(Cc1ccc2c(c1)OCO2)C(=O)CNC(C)=O (stereo not drawn),,"inconclusive [activator, single point]"
O=C(CSc1nnnn1-c1ccc(Cl)cc1)N1CCc2ccccc2C1,,"inconclusive [activator, partial curve]"
C(=C\CSc1nnnn1-c1ccccc1)/CSc1nnnn1-c1ccccc1,,"inconclusive [activator, partial curve]"

Compound,activation,Potency
CC(C)Cn1c(N)c(C(=O)COC(=O)c2ccc3ccccc3n2)c(=O)n(C)c1=O,inactive: 15.2%,
CC(=O)c1cccc(NC(=O)C2CCN(S(=O)(=O)c3c(C)n[nH]c3C)CC2)c1,inactive: -6.81%,
CC1CCc2cc(F)ccc2N1C(=O)c1ccc2c(c1)OCO2 (stereo not drawn),inactive: 25.3%,
O=C(N/N=C1/C[C@@H](O)[C@@H](O)[C@@H]2[C@H]3C(=O)N(c4ccc(F)cc4F)C(=O)[C@@H]3CC[C@@H]12)OCc1ccccc1,inactive: 0.214% [at 11.4 µM],
O=C1CN2C(=Nc3ccc(Cl)cc3C2c2ccccc2)CN1 (stereo not drawn),inactive: 26.5%,
O=S(=O)(Nc1ncccc1O)c1ccc(Cl)cc1,,"inconclusive [activator, partial curve]"
COc1ccccc1N=c1oc2c(OC)cccc2cc1C(=O)NCc1ccco1,,"inconclusive [activator, partial curve]"
Cc1cccc2cc(CN(CCN3CCCC3)C(=O)NC3CCCCC3)c(=O)[nH]c12,,"inconclusive [activator, single point]"
O=C(OCc1nnc(-c2ccccc2)o1)c1ccc2c(c1)OCCO2,,active: 12.6 µM
Cc1noc(C)c1S(=O)(=O)N1CCCC(C(=O)NCCc2ccc(Cl)cc2)C1 (stereo not drawn),,"inconclusive [activator, single point]"
O=C(c1ccco1)N1CCC(c2nc(-c3ccccc3Cl)no2)CC1,,"inconclusive [activator, partial curve]"
Cc1c(C(=O)Nc2ccccc2)sc2nc(-c3ccccc3)cn12,,active: 31.6 µM
CC1(C)Cc2c(sc3nc(NCCN4CCOCC4)n4ncnc4c23)CO1,inactive: -10%,
CC(C)[C@H](NC(=O)OC(C)(C)C)c1nnc(SCc2cccc(F)c2)o1,,"inconclusive [activator, partial curve]"
Cc1cc(=O)n2c(C)n[nH]c2n1,,"inconclusive [activator, single point]"
Cc1cc(C)nc(NC(=O)Nc2ccccc2C(F)(F)F)n1,,"inconclusive [activator, single point]"
O=c1cc(CSc2nnc(-c3cccs3)n2Cc2ccccc2)nc2sc3ccccc3n12,,active: 10 µM
CCOc1cc(OCC)c(C(C)=O)cc1OCC,inactive: -5.03%,
CCOC(=O)c1cnc2ccc(C(=O)OC)cc2c1NCCN1CCOCC1,,"inconclusive [activator, partial curve]"
Cc1cccc(C)c1NC(=O)C(c1cccs1)N(Cc1ccco1)C(=O)Cn1nnc2ccccc21 (stereo not drawn),,active: 15.8 µM
Clc1ccc(OCc2nnc(-c3ccccc3Br)o2)cc1,,"inconclusive [activator, single point]"
Cc1ccc(CCNC(=O)C2CCCN(S(=O)(=O)c3c(C)nn(C)c3C)C2)cc1 (stereo not drawn),,"inconclusive [activator, single point]"
CCCn1nnnc1NCc1ccccc1OCc1ccc(F)cc1,,"inconclusive [activator, partial curve]"
CCCCn1c(NC(=O)c2ccccc2)nc2ccccc21,,active: 31.6 µM
O=C(c1ccco1)n1c(=S)nc2ccccn21,inactive: -1.4%,

Compound,activation,Potency
O=C1c2oc3ccccc3c(=O)c2C(c2cccnc2)N1Cc1ccco1 (stereo not drawn),,"inconclusive [activator, single point]"
COc1ccccc1-c1nnc2sc(COc3ccc(Cl)cc3)nn12,,"inconclusive [activator, single point]"
COc1ccc2ccccc2c1C1CC(=O)N2CN(Cc3ccco3)CSC2=C1C#N (stereo not drawn),,"inconclusive [activator, single point]"
COc1ccc(-n2c(=O)c(C)nc3cncnc32)cc1,,"inconclusive [activator, single point]"
O=C(Nc1ccccc1)c1cccc(N2CCCC2=O)c1,,active: 15.8 µM
O=C(CN1CCCCCC1)NCCc1ccc(F)cc1,,"inconclusive [activator, partial curve]"
Fc1ccc2[nH]c3c(N4CCSCC4)ncnc3c2c1,,"inconclusive [activator, partial curve]"
Cc1cc(Cl)ccc1OC(C)C(=O)Nc1ccccc1N1CCOCC1 (stereo not drawn),,active: 25.1 µM
CCC(=O)Nc1cc(C)c(NC(=O)C23CC4CC(CC(C4)C2)C3)cn1,inactive: -3.72%,
CC(C)COC(=O)n1c(SCC(=O)N(C)C)nc2ccccc21,inconclusive: 31.2% [activator],
Cc1ccc2cccc(S(=O)(=O)N3CCN(c4ccccc4F)CC3)c2n1,,"inconclusive [activator, full curve]"
CCCC(CCC)C(=O)NCCN1CCOCC1,,"inconclusive [activator, single point]"
CS(=O)(=O)N(Cc1cc2ccccc2[nH]c1=O)C1CCCCC1,,"inconclusive [activator, single point]"
COc1ccccc1-n1cnnc1SCC(=O)c1cc(C)n(Cc2cccs2)c1C,,active: 31.6 µM
COc1ccc(C(=O)CSc2nnc(Cn3cnc4ccccc43)o2)cc1,,"inconclusive [activator, full curve, poor fit]"
COc1cccc(-c2cc(C(=O)N3CCCc4ccccc43)no2)c1,,active: 15.8 µM
O=C(O)c1nnsc1-c1ccc(-c2snnc2C(=O)O)cc1,inactive: 8.52% [at 11.4 µM],
O=C(CCn1nc(-c2ccccc2)c2ccccc2c1=O)N1CCN(c2ccccc2)CC1,,active: 25.1 µM
CCCCc1ccc(S(=O)(=O)NCCc2ccncc2)cc1,,"inconclusive [activator, single point]"
Cc1nc2ccccc2nc1N1CCC(C)CC1,,"inconclusive [activator, partial curve]"
COc1ccc(C[C@@H]2c3cc(OC)c(OC)cc3CC[N@+]2(C)CCC(=O)OCCCCCOC(=O)CC[N@@+]2(C)CCc3cc(OC)c(OC)cc3[C@H]2Cc2ccc(OC)c(OC)c2)cc1OC,inactive: -5.65% [at 25.6 µM],
NC(=O)c1ccccc1NC(=O)CS(=O)(=O)Cc1ccccc1,inactive: 11.6%,
CCOC(=O)c1sc2nc(N3CCOCC3)c3c(c2c1N)CC(C)(C)N(C)C3,inactive: -5.24%,
